# Screen size: about 44,000 compounds; about 340 (0.77%) were called active. Inconclusive results (about 5%) are left out. Calls follow the shape of the dose curve; as a rule, active = well fitted inhibition curve with a large enough effect; inconclusive = small, poorly fitted or top-dose-only effect; inactive = flat fitted curve, though single readings scatter. The list shows a part of the results.
# Experiment: Acumen qHTS Assay for Inhibitors of the mTORC1 Signaling Pathway in MEF (Tsc2-/-, p53-/-) Cells: Sytravon;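 also: plate controls were DMSO for no effect and rapamycin for full effect; nearly all actives have a fitted effect of over 50% in size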
# Conditions: phospho-rpS6 immunofluorescence/PI, 24 h; series mostly up to 38.3 µM; activity change, negative = inhibition: at the top concentration
# In short: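 Cell-based qHTS: Tsc2-/- p53-/- MEF, 24 h cpd, 37 °C; fix/perm, anti-phospho-S6 Alexa-488 + PI; Acumen 488 nm scan; pS6/PI ratio, % positive cells; rapamycin 7.5 nM = inhibition ref; PI count = viability.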
row,Structure (SMILES),"activity change, negative = inhibition"
1,Cc1cc(C)n(CCC(=O)Nc2ccc(Cl)cc2)n1,inactive: -0.463%
2,O=C(Nc1ccccc1C(=O)OCc1cc(=O)n2nc(C3CC3)sc2n1)c1ccc(Cl)cc1,inactive: 2.92%
3,Cc1ccc(C)c(N2CCN(c3nc4ccc(C)cc4nc3-n3nc(C)cc3C)CC2)c1,inactive: -11.5%
4,CCOCCc1nnc(NC(=O)C(=O)c2cc(C)n(-c3ccc(C)c(C)c3)c2C)s1,inactive: -17.9%
5,O=C(Cn1cnc2nc3c(cc2c1=O)CCCC3)Nc1ccc(F)cc1Cl,inactive: 1.46%
6,O=C(NCC(c1cccs1)S(=O)(=O)c1cccs1)c1ccc(F)c(F)c1 (stereo not drawn),inactive: 0.749%
7,COc1ccccc1CNC(=O)CSc1nc(-c2ccc(OC)c(OC)c2)cc(C(F)(F)F)n1,inactive: -3.36%
8,COC(=O)c1sccc1S(=O)(=O)N(CC(=O)Nc1cc(C)ccc1C)c1ccc(C)c(C)c1,inactive: -9.05%
9,Cc1ccc(N2CC(NC(=O)c3ccc(S(=O)(=O)N(C)C)cc3)CC2=O)cc1C (stereo not drawn),inactive: 0.108%
10,CCC(C)NC(=O)c1ccc2c(c1)sc1nc(-c3ccc(OC)cc3)cn12 (stereo not drawn),inactive: -2.23%
11,O=C(CSc1nc2c([nH]c3ccccc32)c(=O)n1-c1cccc(Cl)c1)N1CCCC1,inactive: 0.446%
12,CCc1ccc2oc(-c3ccc(C)c(NC(=O)c4cc([N+](=O)[O-])ccc4N4CCOCC4)c3)nc2c1,inactive: -5.09%
13,CCCCc1ccc(-n2nc3ccc(NC(=O)c4cc5ccccc5o4)cc3n2)cc1,inactive: 12.7%
14,COc1ccc(C(=O)NCCSc2c[nH]c3ccccc23)cc1OC,inactive: -2.19%
15,Clc1ccc(CSc2ccc(-c3cccs3)nn2)cc1,inactive: -2.48%
16,COc1ccc(-n2c(=O)c3c4c(sc3n(Cc3ccc(F)cc3)c2=O)CN(C(C)=O)CC4)c(OC)c1,inactive: -4.6%
17,CCC(CC)C(=O)N1c2ccccc2C(C)(c2ccccc2)CC1(C)C (stereo not drawn),inactive: -13.1%
18,COC(=O)CN1C(=O)CSc2ccc(S(=O)(=O)Nc3ccc(F)c(Cl)c3)cc21,inactive: 2.42%
19,CSc1ncc(C(=O)Nc2cc(C)cc(C)c2)c(-c2ccccc2)n1,inactive: -4.76%
20,CC(=O)N1CCc2c(sc3c2c(=O)n(Cc2ccccc2)c(=O)n3Cc2ccc(Cl)cc2)C1,inactive: -6.49%
21,CN1CCN(C(CNC(=O)c2ccc(F)cc2)c2ccc3c(c2)OCO3)CC1 (stereo not drawn),inactive: -0.102%
22,COc1ccc(OC)c(CCNC(=O)c2c(C)oc3ncn(CC(C)C)c(=O)c23)c1,inactive: 4.36%
23,Cc1cc(C)c(Cn2c(=O)n(CCC(=O)NCCc3ccccc3)c(=O)c3ccccc32)c(C)c1,inactive: 12.2%
24,CCOC(=O)Cn1c(=O)oc2cc(S(=O)(=O)N3CCN(c4cccc(Cl)c4)CC3)ccc21,inactive: -5.07%

row,Structure (SMILES),"activity change, negative = inhibition"
1,CCOCCCn1c(SCC(=O)Nc2ccccc2CC)nc2ccccc2c1=O,inactive: 3.75%
2,O=C(O)c1sc(Nc2ccccc2)nc1-c1ccccc1,inactive: -10.1%
3,Cc1ccc(NC(=O)c2cccc3c(=O)c4c([nH]c23)CCCC4)c(C)c1,inactive: 0.128%
4,CCN(CC)c1ccc(C(=O)N2CCc3c([nH]c4ccccc34)C2c2ccc(F)cc2)cc1 (stereo not drawn),inactive: -0.74%
5,Cc1ccc(NC(=O)Nc2nnc(SCC(=O)N(C(C)C)C(C)C)s2)cc1,inactive: -0.466%
6,COc1cccc(CNC(=O)c2c(C)nn(-c3ccc(F)cc3)c2-n2cccc2)c1,inactive: -6.95%
7,CCOC(=O)c1sc2ccccc2c1S(=O)(=O)Nc1ccc(OC)c(Cl)c1,inactive: -2.53%
8,CCOc1ccc(NC(=O)Nc2nnc(N3CCCCC3C)s2)cc1 (stereo not drawn),inactive: -3.74%
9,O=C(COc1ccccc1F)Nc1nnc(SCc2cc(=O)n3ccccc3n2)s1,inactive: 5.72%
10,Cc1ccccc1Cn1nnc2sc3c(c2c1=O)CCCC3,inactive: 9.01%
11,CCOC(=O)c1c(NC(=O)Nc2ccc(F)cc2)sc(C(=O)N(C)C)c1C,inactive: -1.29%
12,COc1ccc(CCNC(=O)c2ccc3c(c2)N(Cc2ccccc2Cl)C(=O)c2ccccc2S3)cc1OC,inactive: 2.5%
13,Cn1cc(CCCC(=O)NCc2cccc(Br)c2)c2ccccc21,inactive: 3.32%
14,CCc1nc2ccc(C(=O)NCc3ccccc3C)cc2nc1CC,inactive: -1.5%
15,O=c1c(NCc2cccs2)nccn1-c1ccccc1,inactive: -3.99%
16,COc1ccc(-n2cc(-c3ccccc3)c3c(N4CCCC(C)C4)ncnc32)cc1 (stereo not drawn),inactive: 5.44%
17,COc1ccc(-c2cccc(NS(=O)(=O)c3cc(C(F)(F)F)ccc3Cl)c2)nn1,inactive: -1.98%
18,O=C(CS(=O)(=O)c1cccc2nsnc12)NCc1ccccc1Cl,inactive: -6.03%
19,Cc1ccc(CN2c3ccccc3-c3nc(SCC(=O)NCc4ccccc4)ncc3S2(=O)=O)cc1,inactive: 1.41%
20,COc1ccc(C(=O)NCCc2csc(-c3ccc(Cl)cc3)n2)cc1,inactive: 2.58%
21,CCC(=O)C1=C(c2ccccc2)N(C(=O)CC)n2c(nnc2-c2ccccc2)S1,inactive: -8.43%
22,Cc1ccc(N(CC(=O)Nc2ccc(F)cc2F)S(=O)(=O)c2cccs2)cc1,inactive: 4.18%
23,Cc1ccc(S(=O)(=O)NCCc2nnc3ccc(SCc4ccccc4F)nn23)cc1,inactive: -7.64%
24,CCCCCCc1cc2cc(-c3nnc(-c4cccc(Cl)c4)o3)c(=O)oc2cc1O,inactive: -11.4%

# — PubChem BioAssay AID493208 (National Center for Advancing Translational Sciences (NCATS), 2011)
